This note sets out measurements from the supplement of paper PMC10338343.

± gives the standard deviation. Only a part is listed here, and it is no random draw.
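Note: 1 nM active piRISC with 0.1 nM target library at 33 °C single turnover.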

For one assay, the system named is MIWI (PIWIL1) piRISC loaded with L1MC piRNA (30 nt). The assay is described as follows: pre-steady-state target cleavage rate (min^-1); MIWI and MILI are mouse PIWI proteins and EfPiwi is from a freshwater sponge; tags in brackets are library labels; higher = faster piRNA-guided slicing of the target. As to conditions: guide: L1MC piRNA 5'p-UAACUAAAUACUAUGCAAGCUGUAGGUCCU; auxiliary factor: 500 nM mouse GTSF1. Summed up: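 In this Cleave-'n-Seq assay, uncleaved targets were sequenced and normalised to depth and to weakly complementary targets. They came from a transcribed, DNA-blocked target RNA library […] mixed with 1 nM active affinity-purified piRISC carrying one synthetic guide, with or without 500 nM GTSF1 partner protein, in HEPES–potassium acetate buffer at 33 °C for 0–8 or 0–960 min. After three trials were pooled and k3 was capped at 0.0001 min^-1, the pre-steady-state cleavage rate was obtained from a burst-and-steady-state fit.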
With UCCUGGUACAGCUUGCAUUGUAUUUACAAA, the “pre-steady-state target cleavage rate” value came out at 0.0263 ± 0.0094.

UCGACCUACAGCAAGCAUAGUAUUUACAAA: the “pre-steady-state target cleavage rate” value was 0.341 ± 0.05.

With UCCACCUACAGCUUGCAUACUAUUUUCAAA, the “pre-steady-state target cleavage rate” value turned out to be 0.178 ± 0.034.

On to UCCUGGAUGUCCUAGCAUUGUAUUUAGUUA, for which the “pre-steady-state target cleavage rate” value was determined as 0.00474 ± 0.0045.

Turning to UCCUCCUACAGCUUGCAAUCUAUUUAGAAA, the “pre-steady-state target cleavage rate” value came out at 0.0685 ± 0.02.

In the case of UCCUGCUAGAGCUUGCAUAGUAUUUACAAA, the “pre-steady-state target cleavage rate” value amounted to 0.186 ± 0.047.

As for UCCACCUUCAGCUUGCAUAGUAUUUACAAA, the “pre-steady-state target cleavage rate” value worked out at 0.304 ± 0.037.

Turning to UCGACCUACAGCAAGCAUAGUAUUUUCAAA, the “pre-steady-state target cleavage rate” value is 0.22 ± 0.039.

In the case of UCCUGGAACAGGAUGCAUAGUAUUUACAAA, the “pre-steady-state target cleavage rate” value amounted to 0.0171 ± 0.0066.

In the case of UCCUGGAACUGCUUGCAUAGUAUUUUCAAA, the “pre-steady-state target cleavage rate” value is 0.0751 ± 0.016.

Turning to UCCUGGAUCACGAUGCAUAGUAUUUAGUAA, the “pre-steady-state target cleavage rate” value came to 0.00608 ± 0.0037.

“UCCUGGAUGUCGUUGCAUAGUAUUUAGUUC [g2:g18:cont:t1C]”: the “pre-steady-state target cleavage rate” value worked out at 0.00724 ± 0.0025.

The assay is the same for the next values; noted with them: guide: L1MC piRNA 5'p-UAACUAAAUACUAUGCAAGCUGUAGGUCCU; auxiliary factor: none (no GTSF1).
Regarding UCCUGGAUGUCGAUGCAUAGUAUAUACUUA, the “pre-steady-state target cleavage rate” value is < 0.0001.

On to UCCUGGAUGUCGAUCCAAAGUAUUUAGUUA, for which the “pre-steady-state target cleavage rate” value was < 0.0001.

Turning to UCCUGGAUGUCGAACCAUAGAAUAUAGUUA, the “pre-steady-state target cleavage rate” value was < 0.0001.

Take UCCUGGAUGUCGAACGAUAGUAUUUUGUUA: the “pre-steady-state target cleavage rate” value was < 0.0001.
